GI50 and TGI data for four compounds are collected here from PubChem BioAssay (NCI).

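48-hour exposure; five concentrations; linearly interpolated endpoints. GI50 is the concentration that inhibits growth by half. At the TGI there is no net growth.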 Bounds are passed on as bounds.

The test concerns NCI-H322M lung. Kind of test: NCI anticancer screen, dose series, 48 h.
`O=C(COc1ccc(/C=C2/C(=O)Nc3ccc(Cl)cc32)cc1)Nc1ccc(Br)cc1`: the GI50 was 2.37 µM and the TGI stood at 11.8 µM.

As for `COc1cccc2nc(Nc3cccc(NC(=O)c4ccc(CN5CCCN(C)CC5)c(C(F)(F)F)c4)c3)ccc12`, the GI50 was 2.12 µM and the TGI was 5.82 µM.

Regarding `Cc1cc(=O)oc2cc(OCCCOc3ccc(/C=C/C(=O)Nc4ccccc4N)cc3)ccc12`, the GI50 is 5.14 µM and the TGI was above 100 µM.

As to `NS(=O)(=O)c1ccc(Nc2nc(N/N=C/c3cc(Br)c(O)c(Br)c3)nc(Nc3ccccc3)n2)cc1`, the GI50 was 14.2 µM and the TGI was 27.3 µM.
